# Source: the supplement of paper PMC3334620
# The full ranking holds about 33,000 sequences; the median of “E-score (-0.5 to 0.5)” is about -0.011, and the highest 2% start at about 0.28. This is one part of the list.
# Biological target: T1, Gcr1 (UniProt P07261)
# T1 sequence: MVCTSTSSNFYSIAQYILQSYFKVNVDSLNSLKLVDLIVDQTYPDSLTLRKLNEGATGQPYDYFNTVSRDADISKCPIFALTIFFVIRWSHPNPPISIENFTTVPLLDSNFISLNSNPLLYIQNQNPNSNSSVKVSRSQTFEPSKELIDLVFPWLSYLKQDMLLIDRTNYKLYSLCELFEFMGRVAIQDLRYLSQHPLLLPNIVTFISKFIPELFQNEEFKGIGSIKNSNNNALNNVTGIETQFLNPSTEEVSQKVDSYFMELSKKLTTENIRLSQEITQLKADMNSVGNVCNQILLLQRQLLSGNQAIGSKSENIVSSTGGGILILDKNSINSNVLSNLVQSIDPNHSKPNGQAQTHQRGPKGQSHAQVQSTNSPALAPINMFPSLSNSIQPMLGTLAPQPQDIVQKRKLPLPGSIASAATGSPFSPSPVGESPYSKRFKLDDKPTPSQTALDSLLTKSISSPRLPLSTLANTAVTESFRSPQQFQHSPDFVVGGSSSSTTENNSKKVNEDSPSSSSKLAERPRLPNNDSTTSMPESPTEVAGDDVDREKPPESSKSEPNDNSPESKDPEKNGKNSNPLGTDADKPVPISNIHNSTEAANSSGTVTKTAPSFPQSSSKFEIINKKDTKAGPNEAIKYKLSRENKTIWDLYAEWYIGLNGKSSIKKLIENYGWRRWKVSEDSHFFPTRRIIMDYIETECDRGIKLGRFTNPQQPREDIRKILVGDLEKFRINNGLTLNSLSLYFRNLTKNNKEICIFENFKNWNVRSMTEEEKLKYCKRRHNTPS
# Assay: PBM E-score (8-mer binding enrichment) (E-score (-0.5 to 0.5)); higher = stronger / more preferred TF binding; most listed sequences are background and not binding sites
# Settings: protein concentration: 100 nM; construct: GST-full length
# How it was run: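 Bound GST-tagged yeast transcription factors, applied at about 100-200 nM to double-stranded universal all-10-mer Agilent arrays, were detected with fluorescent anti-GST. Scans were normalised with masliner. A modified Wilcoxon-Mann-Whitney statistic, the E-score, was assigned to each ungapped eight-base word pooled with its reverse complement by the Universal PBM Analysis Suite.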
row,Sequence,PBM E-score
1,TATTGTAA,0.00851
2,TCACCTCA,-0.155
3,ATTCGCCA,0.096
4,GCCAAGAC,-0.104
5,CTGACCAC,-0.139
6,CTTCGAGC,-0.0646
7,AAAATCTC,-0.132
8,GGTAGCCA,0.274
9,ACAAGACT,0.0934
10,CCCAGGGG,-0.102
11,TATCGAGA,0.0733
12,AGAGCAGG,0.0116
13,AGATTGGC,-0.00448
14,AAGGCCGC,-0.0941
15,CAGGCACG,-0.0582
16,CCCGCTCC,0.0861
17,ATAGCAAT,0.0118
18,AATGTTGC,-0.0406
19,AAGTTGCG,0.211
20,CGGGGTTA,-0.0298
21,GGTTGCGA,0.231
22,AGATGAAC,-0.0418
23,ATGACCAG,0.0279
24,AAAATGTA,0.0737
25,ACGTTCGA,-0.284

row,Sequence,PBM E-score
1,ATAGAGTG,-0.0126
2,CTATATCA,-0.0714
3,GGTGGACA,0.04
4,AAATTCGG,0.071
5,CTTGATTA,-0.125
6,ACGGTTCG,-0.132
7,CGACTCTC,-0.0599
8,GAAAGACC,-0.162
9,AAAATAGG,0.335
10,CCGGCGCC,0.317
11,GAGATGAA,-0.149
12,GCTAGAGA,-0.0437
13,AAGCCTCC,0.132
14,GTGACAAC,0.108
15,CTTTCATA,0.0601
16,CAGGATAC,0.134
17,AATCATAT,-0.242
18,CTGTGTAA,-0.00263
19,TAGGGAAA,0.116
20,ATGGGAAT,0.0953
21,GCATGCCA,-0.255
22,TCGTCCAA,0.0652
23,CAAAGGCA,-0.0313
24,TATTTTGA,0.0187
25,GCCATTTA,-0.00671

row,Sequence,PBM E-score
1,CAGCATCA,-0.00923
2,CTATCATA,0.0505
3,AAACGACT,-0.0932
4,CCCATTTC,-0.0272
5,AAATAGCT,-0.13
6,GTGCGCTA,0.0787
7,CTGTTCAA,0.046
8,CACGCTTC,0.129
9,TTCCCCAA,0.0531
10,ACTATACT,-0.118
11,CAAGTTAA,0.131
12,GCGAATAC,0.219
13,AACAATGG,-0.0155
14,AACTCAAT,0.158
15,CCCAGCAG,0.0849
16,AACTGGCA,0.0707
17,CCGCATGC,-0.0758
18,CGGTACCC,0.0751
19,CTGCATAC,-0.0336
20,CCGTCCCC,0.00017
21,ATACTTTA,0.0558
22,ATCTCTAG,-0.129
23,AATGTTCG,-0.241
24,CCAGGCCA,-0.177
25,TAGACAAA,-0.0792

row,Sequence,PBM E-score
1,GAGAGGCC,-0.124
2,AATTGTGT,0.00335
3,GGTTGATA,0.14
4,AGGACGAG,-0.073
5,AAAGTGGA,0.24
6,ACTCATAT,-0.0256
7,CATTTACA,-0.0327
8,CGCGCTTA,-0.0607
9,CTAGTTTA,0.00723
10,GAAAGGTC,-0.172
11,GCATGTTA,-0.133
12,CGTGTTAG,-0.144
13,CTTTGCGA,0.0341
14,AAGGCCTA,-0.182
15,ACCCTCTG,0.0165
16,ACTTGACG,-0.152
17,ATAAGTTG,0.225
18,CTAAAGCC,-0.155
19,ATCAACAA,-0.0486
20,ACGATGCC,0.213
21,AACTACCT,0.125
22,ATACGGTG,0.251
23,CCGGTAAC,0.0844
24,GCGCAACA,-0.0522
25,ACGACGTA,-0.0831

row,Sequence,PBM E-score
1,CCGACACC,0.108
2,ATGAAATG,0.104
3,GCGTCTTA,0.239
4,GGCTGAAC,-0.236
5,GTACGTGA,-0.119
6,AGGAAGTG,0.213
7,GGCGGGTA,-0.141
8,AAGGATGT,0.0399
9,AGTTCATC,-0.00686
10,AATGATTA,0.064
11,AAGGATCC,0.187
12,GGCGACAC,-0.0942
13,CGTCTCGA,-0.00962
14,CCGGCAAG,-0.101
15,GTCTATGA,-0.0665
16,AAATATTG,0.116
17,AGGCTAAA,0.0237
18,CACCGTTA,-0.267
19,AGGCGCTA,0.0978
20,CACTCATG,0.0264
21,CTTGCACC,0.0381
22,ACGCACAG,-0.124
23,CCGCCCAC,0.0451
24,GACATTCC,-0.0198
25,CAAAACAA,-0.0517

row,Sequence,PBM E-score
1,GGGTGACC,-0.0279
2,CCTGGGAG,-0.108
3,CGAGGATC,0.0916
4,AAGGGCTA,-0.138
5,AAGATCAC,-0.008
6,CCAGGCTC,0.0327
7,GCCAGGTA,0.0834
8,TATCCGAA,0.177
9,CCGGGTTC,0.241
10,GAGAGCCA,-0.04
11,GTCGCGAA,-0.0461
12,ACCGACAT,-0.0514
13,ACCAAACC,-0.0634
14,CGAACAGA,0.0941
15,GAAGATCA,0.0886
16,GCGATGCA,-0.273
17,AACTATAC,0.0928
18,AACGTTAC,-0.0809
19,GACCACCA,0.15
20,AGGTCTTC,-0.207
21,GATCTTTA,0.0742
22,ATTGGATG,0.183
23,ATGTCCTG,0.0222
24,AAAATCAT,-0.252
25,AATGGAGT,-0.197

row,Sequence,PBM E-score
1,ACCTAGCT,-0.115
2,GGGCGATA,-0.0581
3,CAGATAAA,-0.105
4,TCAGACAA,-0.16
5,AAACCCGG,0.0332
6,AATTTCTA,0.11
7,GTGCCCCA,-0.0431
8,AAGCAGCA,-0.176
9,ATTAGTCA,0.0953
10,ACTATTAA,0.0477
11,AGAAATGC,0.0466
12,ATTCTGGA,0.18
13,CGAGGAAC,0.0491
14,AATCGCAG,-0.102
15,CGGTCTGA,-0.0485
16,AATATCGG,0.0858
17,GTTGCCAA,0.177
18,CACATACG,0.0844
19,CGTGTACC,-0.104
20,GGCCATTA,-0.196
21,CAGTTGGC,0.155
22,ACGCGATA,-0.0739
